Results from the supplement of paper PMC10369915.
Some of the results follow. No stated cut-off is given here; in the data, active = 3.2 or more and inactive = the rest. Most of these values are background signal.

Assays:
Test in all cases: enrichment score (SH2-bound / input frequency) (ratio); bacterial display of known human phosphotyrosine sites (pTyr-Var adds point mutants) read by sequencing; higher = stronger binding; tyrosines were phosphorylated by kinases first
Conditions in all cases: peptide library: pTyr-Var
[1] = molecular target: SHP2 C-SH2 domain E139D
[2] = molecular target: SHP2 C-SH2 domain wild-type
[3] = molecular target: SHP2 N-SH2 domain L43F
[4] = molecular target: SHP2 N-SH2 domain T42A
[5] = molecular target: SHP2 N-SH2 domain T52S
[6] = molecular target: SHP2 N-SH2 domain wild-type

Measured: enrichment score
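Further: displayed peptides selected on beads carrying the immobilized SH2 domain, with library peptides lacking any tyrosine serving as negative controls.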

MDNQEYKDAFT [BRDT_Y331_K336T_YF]
inactive: [1] 0.698 | [2] 0.829 | [3] 0.798 | [4] 0.697 | [5] 0.627 | [6] 0.583

ISRLKYPVSQQ [BTK_Y375]
inactive: [1] 1.3 | [2] 1.3 | [3] 1.34 | [4] 1.08 | [5] 1.26 | [6] 1.8

SISYDYCRVPM [BST2_Y8_T4I]
inactive: [1] 0.771 | [2] 0.827 | [3] 0.616 | [4] 0.519 | [5] 0.78 | [6] 0.794

MASTSYDYCRV [BST2_Y6]
inactive: [1] 0.598 | [2] 0.677 | [3] 0.481 | [4] 0.6 | [5] 0.443 | [6] 0.574

EFKDAYTFAAD [BRDT_Y335_K336T_YF]
inactive: [1] 0.489 | [2] 0.473 | [3] 0.509 | [4] 0.475 | [5] 0.514 | [6] 0.48

VTAALYGRLFE [BTD_Y536_YF]
inactive: [1] 1.46 | [2] 1.41 | [3] 1.58 | [4] 1.5 | [5] 1.44 | [6] 1.23

MASTSYDFCRV [BST2_Y6_YF]
inactive: [1] 0.957 | [2] 0.989 | [3] 0.703 | [4] 0.739 | [5] 0.983 | [6] 1.01

EFKDAYKFAAD [BRDT_Y335_YF]
inactive: [1] 0.514 | [2] 0.609 | [3] 0.59 | [4] 0.494 | [5] 0.714 | [6] 0.555

PELINYHQHYS [BTK_Y361_N365Y]
inactive: [1] 1.53 | [2] 1.6 | [3] 1.12 | [4] 1.11 | [5] 1.54 | [6] 1.35

MASISYDYCRV [BST2_Y6_T4I]
inactive: [1] 0.872 | [2] 0.979 | [3] 0.925 | [4] 0.672 | [5] 0.772 | [6] 0.943

PELINYHQHFS [BTK_Y361_N365Y_YF]
inactive: [1] 1.16 | [2] 0.984 | [3] 1.25 | [4] 1.04 | [5] 1.07 | [6] 1.39

VTAALYGCLYE [BTD_Y536_R538C]
inactive: [1] 1.33 | [2] 1.88 | [3] 1.48 | [4] 1.32 | [5] 1.23 | [6] 1.77

ISGLKYPVSQQ [BTK_Y375_R372G]
inactive: [1] 0.9 | [2] 0.772 | [3] 0.91 | [4] 0.756 | [5] 0.785 | [6] 0.842

MSRLKYPVSQQ [BTK_Y375_I370M]
inactive: [1] 1.01 | [2] 0.819 | [3] 0.909 | [4] 0.867 | [5] 0.977 | [6] 1.12

VTSLKYSTPPF [BRIP1_Y916_S919P_YF]
inactive: [1] 0.956 | [2] 0.76 | [3] 0.99 | [4] 0.814 | [5] 0.931 | [6] 0.779

QLFGPYLRIHA [BSCL2_Y213_A212P_YF]
inactive: [1] 1.91 | [2] 2.79 | [4] 2.94 | [6] 1.94
active: [3] 3.47 | [5] 3.49

HKLSYCEYDFE [BTK_Y40_Y40C]
inactive: [1] 1.18 | [2] 1.04 | [3] 0.908 | [4] 0.905 | [5] 0.787 | [6] 0.772

VMAALYGRLYE [BTD_Y536_T532M]
inactive: [3] 3.14 | [4] 2.9 | [6] 3.03
active: [1] 3.59 | [2] 3.22 | [5] 3.86

VTSLKYSTPPY [BRIP1_Y916_S919P]
inactive: [1] 0.881 | [2] 0.742 | [3] 0.859 | [4] 0.667 | [5] 0.767 | [6] 1.11
